{"source": "the supplement of paper PMC8728848", "binders": {"B1": {"name": "SAOUHSC 00176 (Staphylococcus aureus) (protein)", "chain": "MSKILKCITLAVVMLLIVTACGPNRSKEDIDKALNKDNSKDKPNQLTMWVDGDKQMAFYKKITDQYTKKTGIKVKLVNIGQNDQLENISLDAPAGKGPDIFFLAHDNTGSAYLQGLAAEIKLSKDELKGFNKQALKAMNYDNKQLALPAIVETTALFYNKKLVKNAPQTLEEVEANAAKLTDSKKKQYGMLFDAKNFYFNYPFLFGNDDYIFKKNGSEYDIHQLGLNSKHVVKNAERLQKWYDKGYLPKAATHDVMIGLFKEGKVGQFVTGPWNINEYQETFGKDLGVTTLPTDGGKPMKPFLGVRGWYLSEYSKHKYWAKDLMLYITSKDTLQKYTDEMSEITGRVDVKSSNPNLKVFEKQARHAEPMPNIPEMRQVWEPMGNASIFISNGKNPKQALDEATNDITQNIKILHPSQNDKKGD"}}, "test_in_all_cases": "glycan array binding signal (z-score within array); higher = stronger binding", "details_in_all_cases": "glycan notation: IUPAC condensed, linker removed", "key": {"[1]": {"biological_target": "Gal(a1-3)[Gal(a1-4)]Gal(b1-4)GlcNAc", "in_short": "(§1)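 Glycan array data were curated from 3228 arrays in the Consortium for Functional Glycomics database and kept only where the protein sequence was available. Glycan names were converted to IUPAC-condensed notation, and columns mapping to the same glycan were averaged. The binding signal is a within-array Z-score, averaged across arrays of the same protein sequence at different concentrations or buffers and across linkers. Negative Z-scores can be read as non-binding.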"}, "[2]": {"biological_target": "Gal(a1-4)Gal(b1-3)GlcNAc(b1-2)Man(a1-3)[Gal(a1-4)Gal(b1-3)GlcNAc(b1-2)Man(a1-6)]Man(b1-4)GlcNAc(b1-4)GlcNAc", "in_short": "as §1"}, "Gal(a1-4)Gal(b1-4)Glc": {"biological_target": "Gal(a1-4)Gal(b1-4)Glc", "in_short": "as §1"}, "Gal(a1-4)Gal(b1-4)GlcNAc": {"biological_target": "Gal(a1-4)Gal(b1-4)GlcNAc", "in_short": "as §1"}, "[3]": {"biological_target": "Gal(a1-4)Gal(b1-4)GlcNAc(b1-2)Man(a1-3)[Gal(a1-4)Gal(b1-4)GlcNAc(b1-2)Man(a1-6)]Man(b1-4)GlcNAc(b1-4)GlcNAc", "in_short": "as §1"}, "[4]": {"biological_target": "Gal(a1-4)Gal(b1-4)GlcNAc(b1-3)Gal(b1-4)Glc", "in_short": "as §1"}, "Gal(a1-4)GlcNAc": {"biological_target": "Gal(a1-4)GlcNAc", "in_short": "as §1"}, "Gal(a1-6)Glc": {"biological_target": "Gal(a1-6)Glc", "in_short": "as §1"}, "Gal(b1-2)Gal": {"biological_target": "Gal(b1-2)Gal", "in_short": "as §1"}, "Gal(b1-3)Gal": {"biological_target": "Gal(b1-3)Gal", "in_short": "as §1"}, "Gal(b1-3)Gal(b1-4)GlcNAc": {"biological_target": "Gal(b1-3)Gal(b1-4)GlcNAc", "in_short": "as §1"}, "Gal(b1-3)GalNAc": {"biological_target": "Gal(b1-3)GalNAc", "in_short": "as §1"}, "[5]": {"biological_target": "Gal(b1-3)GalNAc(a1-3)[Fuc(a1-2)]Gal(b1-4)Glc", "in_short": "as §1"}, "[6]": {"biological_target": "Gal(b1-3)GalNAc(a1-3)[Fuc(a1-2)]Gal(b1-4)GlcNAc", "in_short": "as §1"}, "Gal(b1-3)GalNAc(b1-3)Gal": {"biological_target": "Gal(b1-3)GalNAc(b1-3)Gal", "in_short": "as §1"}, "[7]": {"biological_target": "Gal(b1-3)GalNAc(b1-3)Gal(a1-4)Gal(b1-4)Glc", "in_short": "as §1"}, "[8]": {"biological_target": "Gal(b1-3)GalNAc(b1-4)Gal(b1-4)Glc", "in_short": "as §1"}, "[9]": {"biological_target": "Gal(b1-3)GalNAc(b1-4)[Neu5Ac(a2-3)]Gal(b1-4)Glc", "in_short": "as §1"}, "Gal(b1-3)GlcNAc": {"biological_target": "Gal(b1-3)GlcNAc", "in_short": "as §1"}, "[10]": {"biological_target": "Gal(b1-3)GlcNAc(a1-3)Gal(b1-4)GlcNAc", "in_short": "as §1"}, "[11]": {"biological_target": "Gal(b1-3)GlcNAc(a1-6)Gal(b1-4)GlcNAc", "in_short": "as §1"}, "Gal(b1-3)GlcNAc(b1-2)Man": {"biological_target": "Gal(b1-3)GlcNAc(b1-2)Man", "in_short": "as §1"}, "[12]": {"biological_target": "Gal(b1-3)GlcNAc(b1-2)Man(a1-3)[Gal(b1-3)GlcNAc(b1-2)Man(a1-6)]Man(b1-4)GlcNAc(b1-4)GlcNAc", "in_short": "as §1"}, "[13]": {"biological_target": "Gal(b1-3)GlcNAc(b1-2)Man(a1-3)[Gal(b1-3)GlcNAc(b1-2)Man(a1-6)]Man(b1-4)GlcNAc(b1-4)[Fuc(a1-6)]GlcNAc", "in_short": "as §1"}, "[14]": {"biological_target": "Gal(b1-3)GlcNAc(b1-2)Man(a1-3)[GlcNAc(b1-4)][Gal(b1-3)GlcNAc(b1-2)Man(a1-6)]Man(b1-4)GlcNAc(b1-4)GlcNAc", "in_short": "as §1"}, "[15]": {"biological_target": "Gal(b1-3)GlcNAc(b1-2)[Gal(b1-3)GlcNAc(b1-6)]Man(a1-6)[Gal(b1-3)GlcNAc(b1-2)Man(a1-3)]Man(b1-4)GlcNAc(b1-4)GlcNAc", "in_short": "as §1"}, "[16]": {"biological_target": "Gal(b1-3)GlcNAc(b1-3)Gal(b1-3)GlcNAc", "in_short": "as §1"}, "[17]": {"biological_target": "Gal(b1-3)GlcNAc(b1-3)Gal(b1-4)Glc", "in_short": "as §1"}, "[18]": {"biological_target": "Gal(b1-3)GlcNAc(b1-3)Gal(b1-4)GlcNAc", "in_short": "as §1"}, "[19]": {"biological_target": "Gal(b1-3)GlcNAc(b1-3)Gal(b1-4)GlcNAc(b1-2)Man(a1-3)[Gal(b1-3)GlcNAc(b1-3)Gal(b1-4)GlcNAc(b1-2)Man(a1-6)]Man(b1-4)GlcNAc(b1-4)GlcNAc", "in_short": "as §1"}, "[20]": {"biological_target": "Gal(b1-3)GlcNAc(b1-3)Gal(b1-4)GlcNAc(b1-2)[Gal(b1-3)GlcNAc(b1-3)Gal(b1-4)GlcNAc(b1-6)]Man(a1-6)[Gal(b1-3)GlcNAc(b1-3)Gal(b1-4)GlcNAc(b1-2)Man(a1-3)]Man(b1-4)GlcNAc(b1-4)[Fuc(a1-6)]GlcNAc", "in_short": "as §1"}, "[21]": {"biological_target": "Gal(b1-3)GlcNAc(b1-3)Gal(b1-4)GlcNAc(b1-3)Gal(b1-4)GlcNAc(b1-2)[Gal(b1-3)GlcNAc(b1-3)Gal(b1-4)GlcNAc(b1-3)Gal(b1-4)GlcNAc(b1-6)]Man(a1-6)[Gal(b1-3)GlcNAc(b1-3)Gal(b1-4)GlcNAc(b1-3)Gal(b1-4)GlcNAc(b1-2)Man(a1-3)]Man(b1-4)GlcNAc(b1-4)[Fuc(a1-6)]GlcNAc", "in_short": "as §1"}, "[22]": {"biological_target": "Gal(b1-3)GlcNAc(b1-3)Gal(b1-4)GlcNAc(b1-6)[Gal(b1-3)GlcNAc(b1-3)]Gal(b1-4)Glc", "in_short": "as §1"}, "[23]": {"biological_target": "Gal(b1-3)GlcNAc(b1-3)Gal(b1-4)[Fuc(a1-3)]GlcNAc", "in_short": "as §1"}, "[24]": {"biological_target": "Gal(b1-3)GlcNAc(b1-3)Gal(b1-4)[Fuc(a1-3)]GlcNAc(b1-6)[Gal(b1-3)GlcNAc(b1-3)]Gal(b1-4)Glc", "in_short": "as §1"}, "[25]": {"biological_target": "Gal(b1-3)GlcNAc(b1-3)GalNAc", "in_short": "as §1"}, "[26]": {"biological_target": "Gal(b1-3)GlcNAc(b1-6)Gal(b1-4)GlcNAc", "in_short": "as §1"}, "[27]": {"biological_target": "Gal(b1-3)GlcNAc(b1-6)GalNAc", "in_short": "as §1"}}, "note": "This is one part of the list.", "data": [{"binder": "B1", "values": [{"measurement": "glycan array binding signal (z-score)", "setting": "[1]", "result": -0.077}, {"measurement": "glycan array binding signal (z-score)", "setting": "[2]", "result": 0.014}, {"measurement": "glycan array binding signal (z-score)", "setting": "Gal(a1-4)Gal(b1-4)Glc", "result": -0.013}, {"measurement": "glycan array binding signal (z-score)", "setting": "Gal(a1-4)Gal(b1-4)GlcNAc", "result": -0.128}, {"measurement": "glycan array binding signal (z-score)", "setting": "[3]", "result": 0.197}, {"measurement": "glycan array binding signal (z-score)", "setting": "[4]", "result": -0.181}, {"measurement": "glycan array binding signal (z-score)", "setting": "Gal(a1-4)GlcNAc", "result": -0.034}, {"measurement": "glycan array binding signal (z-score)", "setting": "Gal(a1-6)Glc", "result": -0.088}, {"measurement": "glycan array binding signal (z-score)", "setting": "Gal(b1-2)Gal", "result": -0.068}, {"measurement": "glycan array binding signal (z-score)", "setting": "Gal(b1-3)Gal", "result": -0.022}, {"measurement": "glycan array binding signal (z-score)", "setting": "Gal(b1-3)Gal(b1-4)GlcNAc", "result": -0.027}, {"measurement": "glycan array binding signal (z-score)", "setting": "Gal(b1-3)GalNAc", "result": -0.068}, {"measurement": "glycan array binding signal (z-score)", "setting": "[5]", "result": 0.001}, {"measurement": "glycan array binding signal (z-score)", "setting": "[6]", "result": -0.133}, {"measurement": "glycan array binding signal (z-score)", "setting": "Gal(b1-3)GalNAc(b1-3)Gal", "result": -0.016}, {"measurement": "glycan array binding signal (z-score)", "setting": "[7]", "result": -0.122}, {"measurement": "glycan array binding signal (z-score)", "setting": "[8]", "result": -0.101}, {"measurement": "glycan array binding signal (z-score)", "setting": "[9]", "result": 0.015}, {"measurement": "glycan array binding signal (z-score)", "setting": "Gal(b1-3)GlcNAc", "result": -0.155}, {"measurement": "glycan array binding signal (z-score)", "setting": "[10]", "result": -0.064}, {"measurement": "glycan array binding signal (z-score)", "setting": "[11]", "result": -0.122}, {"measurement": "glycan array binding signal (z-score)", "setting": "Gal(b1-3)GlcNAc(b1-2)Man", "result": -0.095}, {"measurement": "glycan array binding signal (z-score)", "setting": "[12]", "result": 1.06}, {"measurement": "glycan array binding signal (z-score)", "setting": "[13]", "result": -0.032}, {"measurement": "glycan array binding signal (z-score)", "setting": "[14]", "result": 0.259}, {"measurement": "glycan array binding signal (z-score)", "setting": "[15]", "result": -0.062}, {"measurement": "glycan array binding signal (z-score)", "setting": "[16]", "result": -0.17}, {"measurement": "glycan array binding signal (z-score)", "setting": "[17]", "result": -0.221}, {"measurement": "glycan array binding signal (z-score)", "setting": "[18]", "result": -0.103}, {"measurement": "glycan array binding signal (z-score)", "setting": "[19]", "result": -0.007}, {"measurement": "glycan array binding signal (z-score)", "setting": "[20]", "result": 0.211}, {"measurement": "glycan array binding signal (z-score)", "setting": "[21]", "result": 0.056}, {"measurement": "glycan array binding signal (z-score)", "setting": "[22]", "result": -0.098}, {"measurement": "glycan array binding signal (z-score)", "setting": "[23]", "result": -0.177}, {"measurement": "glycan array binding signal (z-score)", "setting": "[24]", "result": -0.098}, {"measurement": "glycan array binding signal (z-score)", "setting": "[25]", "result": -0.105}, {"measurement": "glycan array binding signal (z-score)", "setting": "[26]", "result": -0.058}, {"measurement": "glycan array binding signal (z-score)", "setting": "[27]", "result": -0.03}]}]}
